According to article PMC4336329 (PLoS ONE, 2015):
About 2,200 (0.71%) of roughly 310,000 compounds showed an effect of 50% or more. Effects have a minus sign here. The list shows a part of the results.

target: human ether-à-go-go-related gene (hERG) potassium channel (human, UniProt Q12809); test: primary screen, population patch clamp on CHO cells stably expressing hERG
Sequence (Q12809 whole entry, looked up): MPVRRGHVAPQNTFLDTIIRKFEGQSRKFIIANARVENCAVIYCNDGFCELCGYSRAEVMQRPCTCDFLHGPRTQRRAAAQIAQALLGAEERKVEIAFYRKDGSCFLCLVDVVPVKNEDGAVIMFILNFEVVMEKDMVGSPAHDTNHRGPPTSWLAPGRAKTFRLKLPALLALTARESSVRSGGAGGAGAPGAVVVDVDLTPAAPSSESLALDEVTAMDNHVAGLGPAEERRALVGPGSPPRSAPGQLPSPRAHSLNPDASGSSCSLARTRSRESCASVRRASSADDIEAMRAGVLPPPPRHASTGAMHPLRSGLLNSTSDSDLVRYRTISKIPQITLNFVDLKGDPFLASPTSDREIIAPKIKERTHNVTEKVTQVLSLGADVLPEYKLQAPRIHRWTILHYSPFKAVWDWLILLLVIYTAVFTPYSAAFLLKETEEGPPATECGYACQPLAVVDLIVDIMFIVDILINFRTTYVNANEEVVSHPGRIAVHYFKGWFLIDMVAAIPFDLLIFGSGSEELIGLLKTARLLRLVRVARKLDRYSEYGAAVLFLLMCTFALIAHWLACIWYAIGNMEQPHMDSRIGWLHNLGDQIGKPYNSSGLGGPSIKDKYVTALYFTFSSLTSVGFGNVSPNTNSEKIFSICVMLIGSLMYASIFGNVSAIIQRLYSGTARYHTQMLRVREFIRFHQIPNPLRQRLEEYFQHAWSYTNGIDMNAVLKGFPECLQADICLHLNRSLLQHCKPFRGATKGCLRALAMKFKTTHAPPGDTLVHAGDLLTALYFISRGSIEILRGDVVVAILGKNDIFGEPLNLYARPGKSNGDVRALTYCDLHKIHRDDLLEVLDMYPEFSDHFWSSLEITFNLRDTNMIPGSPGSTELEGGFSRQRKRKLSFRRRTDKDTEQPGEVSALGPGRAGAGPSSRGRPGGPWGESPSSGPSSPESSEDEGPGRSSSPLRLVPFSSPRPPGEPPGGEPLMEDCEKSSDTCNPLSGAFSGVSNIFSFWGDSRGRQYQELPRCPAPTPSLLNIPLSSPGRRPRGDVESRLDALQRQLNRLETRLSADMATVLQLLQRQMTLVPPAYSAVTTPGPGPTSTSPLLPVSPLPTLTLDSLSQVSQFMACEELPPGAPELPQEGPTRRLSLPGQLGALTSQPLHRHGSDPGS

Compound | hERG current change (%, negative = inhibition) at 1uM
O=C(NCc1ccc(F)cc1)C1CCCN(S(=O)(=O)c2cccc3nsnc23)C1 (stereo not shown) | 16.3%
CC(=O)NCCCc1nc2ccccc2n1Cc1ccccc1C | 5.62%
Cc1ccc(C(=O)NC2CCN(S(=O)(=O)c3ccccc3F)CC2)cc1 | 15.1%
CC(C)Sc1nc(N)c2c3c(sc2n1)CN(C)CC3 | 2.25%
CCN(C(=O)CCN1C(=O)S/C(=C\c2ccccc2)C1=O)C1CCS(=O)(=O)C1 (stereo not shown) | 11.6%
CC(C)[C@H](NC(=O)C1CC(=O)N(c2ccc3c(c2)OCCO3)C1)C(=O)NC1CCCC1 (stereo partly shown) | 15.4%
Cc1ccc(S(=O)(=O)N(CCC#N)CCN2CCCC2)cc1 | 2.4%
CC(=O)Nc1ccccc1C(=O)OCC(=O)c1ccc2ccccc2c1 | 6.13%
O=C(c1ccccc1)N1CCN(Cc2ccc3c(c2)OCO3)CC1 | 19.1%
Cc1ccc(COn2c(-c3ccc(Cl)cc3)nc3ccc([N+](=O)[O-])cc32)cc1 | 11.6%
CN(C)c1ccc(C(C(=O)NCC2CCCO2)N(Cc2ccco2)C(=O)c2snc(C(N)=O)c2N)cc1 (stereo not shown) | 13.8%
O=C(O)CCC(=O)NCc1ccc(C(=O)O)cc1 | 1.45%
CCNc1ccc(C(=O)OCC)cc1NC(=O)c1cccc(S(=O)(=O)N(C)c2ccccc2)c1 | 8.79%
Cc1cc(C)n(CC(O)COc2cccc(OCC(O)Cn3nc(C)cc3C)c2)n1 (stereo not shown) | 13.4%
CC(C)c1nc(SCC(=O)N2CC(=O)Nc3ccccc32)c2ccccc2n1 | 11%
N/C(=N\OC(=O)c1cccs1)c1ccc(Cl)cc1 | 11.2%
Nc1nnc(SCC(=O)Nc2ccc3nc(SCC(=O)Nc4ccccc4)sc3c2)s1 | 2.26%
COc1ccc(CNC(=O)COc2ccc(S(=O)(=O)N3CCCCC3)cc2)cc1 | 12.9%
CCCCN(C)CCNC(=O)CCNC(=O)Cn1ccc2ccccc2c1=O | 12.5%
CC(C)C(NC(=O)c1ccc(F)cc1)C(=O)N1CCN(C(=O)c2ccco2)CC1 (stereo not shown) | 0.644%
CN(C)c1cccc(C(=O)N2CCCC(C(=O)c3cc(F)ccc3F)C2)c1 (stereo not shown) | 7.89%
COc1cc(/C=C2\SC(N3CCC(C)CC3)=NC2=O)ccc1O | 4%
CCOc1ccc(CCNC(=O)COC(=O)c2cc(S(=O)(=O)N3CCOCC3)ccc2F)cc1OCC | -4.26%
C=CCNCc1cc(=O)n2c(-c3ccccc3)csc2n1.O=C(O)C(=O)O | 13.2%
CC(C)OCCCNC(=O)Cn1ccc2cc(S(=O)(=O)N3CCCCC3)ccc21 | 11.6%
O=C(CCc1nnc2ccc(N3CCC4(CC3)OCCO4)nn12)NCc1ccccc1Cl | 18.4%
CCn1cc(CNC(=O)NC2CCCCC2)c(C)n1 | 15.7%
Cc1ccc(S(=O)(=O)N(CC(=O)Nc2ccc(C(N)=O)cc2)C(=O)N2CCN(C)CC2)cc1 | -7.78%

Compound | hERG current change (%, negative = inhibition) at 1uM
CCN(CC)c1ccc(S(=O)(=O)N2CCCCC2)cc1NC(=O)C1CSC2(C)CCC(=O)N12 (stereo not shown) | 0.223%
CC1=C(C(=O)O)N2C(=O)C(NC(=O)c3ccccc3Cl)C2SC1 (stereo not shown) | 8.78%
CCC(=O)NC(=S)Nc1cccc(C(C)=O)c1 | 5.61%
COc1cccc2sc3ccc(C#CC4(N)CCCCC4)cc3c(=O)c12 | 16.7%
N#CC12C(N)=NC3(OCCO3)C1(C#N)C1=C(CCC1)NC2c1ccccc1 (stereo not shown) | 12.2%
CCCOC(=O)c1[nH]c2c(c1C)C(=O)CC(c1cccs1)C2 (stereo not shown) | 7.52%
CN1CCS/C1=C/C=C1\SC(=S)N(CC(=O)O)C1=O | 6.31%
CCSc1nc(C(F)(F)F)cc(=O)n1-c1ccccc1 | -4.15%
CCN1C(=O)/C(=C/C=C2\N(CC)c3cc(S(=O)(=O)N(C)C)ccc3N2c2ccccc2)SC1=S | 2.96%
CC(C)NS(=O)(=O)c1ccc(OCC(=O)N2CCN(Cc3ccc4c(c3)OCO4)CC2)c(Cl)c1 | -3.32%
Cn1c(NCCc2ccccc2)cc(=O)n(C)c1=O | 11.8%
C/C(=N\NC(=S)Nc1c(C)cccc1C)c1cc2ccccc2o1 | 17.5%
O=C(CCCCCCCCCCC(=O)NCc1cccnc1)NCc1cccnc1 | 4.01%
COc1cccc(NC(=O)CSc2nnc3c(n2)[nH]c2ccc(C)cc23)c1 | 13.9%
COc1cc(/C=C/C(=O)c2ccc(C)cc2)ccc1OCC#N | 3.81%
COc1ccc(NC(=O)Cn2c(-c3ccccc3)cn(-c3ccc(C)cc3)c2=O)cc1 | 11%
COc1cc(OC)c(OC)cc1CN1CCN(Cc2cccn2C)CC1.O=C(O)C(=O)O | 7.26%
Cc1sc2ncn(-n3c(C)ccc3C)c(=O)c2c1C | 11.5%
O=C(N/N=C/c1ccc2c(c1)OCO2)C(=O)Nc1cccc(Cl)c1 | 16.1%
COc1cccc(Sc2ccccc2/C=N/NC(N)=O)c1 | 13.8%
CCCCC(=O)Nc1ccc(S(=O)(=O)N2CCCCC2c2cccnc2)cc1 (stereo not shown) | -2.88%
CCOc1ccccc1NC(=O)Cn1nnc(C(=O)NCCc2ccc(OC)c(OC)c2)c1N | 10.3%
On1onc2c3cc(-c4ccccc4)nc3ccc21 | 3.3%
COc1ccc2cc3cc(C(=O)NCC4COc5ccccc5O4)oc3nc2c1 (stereo not shown) | 15.1%
O=C(Nc1nnc(SCc2ccc(Cl)cc2Cl)s1)C1COc2ccccc2O1 (stereo not shown) | 8.17%
CCC(C)OC(=O)C1=C(C)NC(=O)NC1c1ccc(F)cc1 (stereo not shown) | 7.72%
CCOC(=O)c1c(C)[nH]c(C(=O)OCC(=O)N2c3ccccc3CC2C)c1C (stereo not shown) | 9.65%
